Read-outs that look alike come from different tables or passages of the source.
T1: CD73 on U87-MG cell membrane surface (UniProt P21589 27-549, limits assumed)
T1 sequence (looked up): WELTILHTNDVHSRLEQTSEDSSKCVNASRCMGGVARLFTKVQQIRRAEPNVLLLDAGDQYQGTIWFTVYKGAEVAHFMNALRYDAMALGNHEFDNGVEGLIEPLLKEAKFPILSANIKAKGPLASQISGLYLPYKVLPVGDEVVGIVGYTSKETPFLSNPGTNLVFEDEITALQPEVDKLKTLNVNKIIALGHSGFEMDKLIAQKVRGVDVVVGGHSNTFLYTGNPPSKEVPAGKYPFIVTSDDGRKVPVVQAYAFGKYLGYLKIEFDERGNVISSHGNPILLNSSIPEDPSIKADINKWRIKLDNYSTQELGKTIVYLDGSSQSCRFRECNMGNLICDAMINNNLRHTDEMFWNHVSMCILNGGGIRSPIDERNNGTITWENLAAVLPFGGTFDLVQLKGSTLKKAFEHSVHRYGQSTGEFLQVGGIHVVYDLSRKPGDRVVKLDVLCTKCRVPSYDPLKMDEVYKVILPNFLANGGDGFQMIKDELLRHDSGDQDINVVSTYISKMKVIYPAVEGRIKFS

T2: hNT5E(1-552)-His (human, UniProt P21589 27-552)
T2 construct: also called NT5E-His; not shown: His tag
T2 sequence (looked up): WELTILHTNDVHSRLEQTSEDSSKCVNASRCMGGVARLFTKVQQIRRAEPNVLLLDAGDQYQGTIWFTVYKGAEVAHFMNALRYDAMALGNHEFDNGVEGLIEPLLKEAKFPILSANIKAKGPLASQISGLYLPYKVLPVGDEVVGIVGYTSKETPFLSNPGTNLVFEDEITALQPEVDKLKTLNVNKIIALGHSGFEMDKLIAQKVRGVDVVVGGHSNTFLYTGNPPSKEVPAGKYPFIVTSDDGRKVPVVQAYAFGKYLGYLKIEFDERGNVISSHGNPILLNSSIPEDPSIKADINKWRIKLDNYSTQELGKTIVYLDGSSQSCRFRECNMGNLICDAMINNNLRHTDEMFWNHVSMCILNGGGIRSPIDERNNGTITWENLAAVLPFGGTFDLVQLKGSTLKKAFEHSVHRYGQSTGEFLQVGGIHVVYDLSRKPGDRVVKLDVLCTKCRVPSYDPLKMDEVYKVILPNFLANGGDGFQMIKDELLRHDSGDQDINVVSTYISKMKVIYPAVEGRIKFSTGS

T3: human LAG3 on cell surface (293T-LAG3 cells; Jurkat-NFAT-PD1-LAG3 cells) (human, UniProt P18627 23-525)
T3 construct: whole, on cells; also called huLAG3FL
T3 sequence (looked up): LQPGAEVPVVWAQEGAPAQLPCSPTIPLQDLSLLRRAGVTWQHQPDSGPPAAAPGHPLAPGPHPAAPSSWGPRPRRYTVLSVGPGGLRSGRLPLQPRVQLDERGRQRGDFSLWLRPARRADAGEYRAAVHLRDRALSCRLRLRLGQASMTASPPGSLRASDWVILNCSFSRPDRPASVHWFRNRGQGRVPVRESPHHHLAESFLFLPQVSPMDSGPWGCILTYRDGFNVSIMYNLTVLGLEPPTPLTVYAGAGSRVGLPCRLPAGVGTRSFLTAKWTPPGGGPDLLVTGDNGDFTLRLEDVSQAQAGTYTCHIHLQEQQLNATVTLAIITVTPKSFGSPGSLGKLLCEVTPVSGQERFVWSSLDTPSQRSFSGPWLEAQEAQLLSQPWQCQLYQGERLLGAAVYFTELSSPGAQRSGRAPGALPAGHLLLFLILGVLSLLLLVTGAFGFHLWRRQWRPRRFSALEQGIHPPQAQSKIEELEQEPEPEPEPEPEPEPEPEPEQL

T4: human LAG3-mG1Fc (human; mouse, UniProt P18627 23-450, limits assumed)
T4 construct: Made by Akeso; also called huLAG3-mG1Fc; HuLAG3-mG1Fc; not shown: mouse IgG1 Fc (mG1Fc); limits not readable
T4 sequence (looked up): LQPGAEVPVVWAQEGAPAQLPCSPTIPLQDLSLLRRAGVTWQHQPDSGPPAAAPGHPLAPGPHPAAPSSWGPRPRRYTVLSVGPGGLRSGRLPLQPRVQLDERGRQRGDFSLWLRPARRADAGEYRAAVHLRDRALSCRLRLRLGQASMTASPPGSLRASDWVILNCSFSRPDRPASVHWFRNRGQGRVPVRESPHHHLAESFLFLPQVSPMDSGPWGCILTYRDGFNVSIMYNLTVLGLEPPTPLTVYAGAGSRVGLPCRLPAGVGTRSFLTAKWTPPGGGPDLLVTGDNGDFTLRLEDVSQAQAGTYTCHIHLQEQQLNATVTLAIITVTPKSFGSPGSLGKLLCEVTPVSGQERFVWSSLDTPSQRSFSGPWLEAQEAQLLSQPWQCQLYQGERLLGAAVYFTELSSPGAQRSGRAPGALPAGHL


Legend:
[1] = target: T1, CD73 on U87-MG cell membrane surface; experiment: cell-based or functional assay
hNT5E(1-552)-His [2] = target: T2, hNT5E(1-552)-His; experiment: ELISA, NT5E-His coated 1 ug/mL
[3] = target: T1, CD73 on U87-MG cell membrane surface; experiment: flow cytometry on U87-MG cells
[4] = target: T3, human LAG3 on cell surface (293T-LAG3 …); experiment: flow cytometry on 293T-LAG3 cells
human LAG3-mG1Fc [5] = target: T4, human LAG3-mG1Fc; experiment: ELISA, huLAG3-mG1Fc coated 2 ug/mL
human LAG3-mG1Fc [6] = target: T4, human LAG3-mG1Fc; experiment: BLI (Fortebio), antigen on AMC sensor, antibody in solution, 30 C, 1:1 fit
hNT5E(1-552)-His [7] = target: T2, hNT5E(1-552)-His; experiment: BLI (Fortebio), antigen on HIS1K sensor, antibody in solution, 37 C, 1:1 fit
human LAG3-mG1Fc [8] = target: T4, human LAG3-mG1Fc; experiment: competitive flow cytometry, 3 nM LAG3-mG1Fc on Raji cells (competitor MHC II)
hNT5E(1-552)-His [9] = target: T2, hNT5E(1-552)-His; experiment: ELISA, NT5E-His coated 1 ug/mL; remark: listed apart in the source
human LAG3-mG1Fc [10] = target: T4, human LAG3-mG1Fc; experiment: ELISA, huLAG3-mG1Fc coated 2 ug/mL; remark: listed apart in the source
hNT5E(1-552)-His [11] = target: T2, hNT5E(1-552)-His; experiment: ELISA, NT5E-His coated, Ab 0 nM (blank)
hNT5E(1-552)-His [12] = target: T2, hNT5E(1-552)-His; experiment: ELISA, NT5E-His coated, Ab 0.0000423 nM
human LAG3-mG1Fc [13] = target: T4, human LAG3-mG1Fc; experiment: ELISA, huLAG3-mG1Fc coated, Ab 0.0001270 nM
human LAG3-mG1Fc [14] = target: T4, human LAG3-mG1Fc; experiment: ELISA, huLAG3-mG1Fc coated, Ab 0.0011431 nM

| EC50 (nM), inhibition of CD73 enzyme activity on U87-MG cells [1] | Maximum inhibition rate (%) of CD73 enzyme activity on U87-MG cells [1] | EC50 [3] | EC50 [4] | Kd (human LAG3-mG1Fc [6]) | Maximum signal height of analyte (nm) (human LAG3-mG1Fc [6]) | S E (kdis) (human LAG3-mG1Fc [6]) | S E (kon) (human LAG3-mG1Fc [6]) | koff (human LAG3-mG1Fc [6]) | kon (human LAG3-mG1Fc [6]) | Kd (hNT5E(1-552)-His [7]) | Maximum signal height of analyte (nm) (hNT5E(1-552)-His [7]) | S E (kdis) (hNT5E(1-552)-His [7]) | S E (kon) (hNT5E(1-552)-His [7]) | koff (hNT5E(1-552)-His [7]) | kon (hNT5E(1-552)-His [7]) | EC50 (human LAG3-mG1Fc [8]) | Binder | other results |
| --- | --- | --- | --- | --- | --- | --- | --- | --- | --- | --- | --- | --- | --- | --- | --- | --- | --- | --- |
| 0.816 nM | 98.8% | 5460 pM | 759 pM | 1470 pM | 0.806 nm | 3.05e-06 s⁻¹ | 1880 M⁻¹ s⁻¹ | 0.000505 s⁻¹ | 344000 M⁻¹ s⁻¹ | 340 pM | 0.203 nm | 4.01e-06 s⁻¹ | 1710 M⁻¹ s⁻¹ | 0.000128 s⁻¹ | 375000 M⁻¹ s⁻¹ | 974 pM | NTLAV8(hG1TM) (bispecific antibody, human IgG1, kappa, IgG-scFv (Morrison format)) heavy: QVQLVQSGAEVVKPGASVKVSCKASGYSFTGYTMNWVRQAPGQNLEWIGLINPYNAGTSYNQKFQGKVTLTVDKSTSTAYMELSSLRSEDTAVYYCARSEYRYGGDYFDYWGQGTTLTVSSASTKGPSVFPLAPSSKSTSGGTAALGCLVKDYFPEPVTVSWNSGALTSGVHTFPAVLQSSGLYSLSSVVTVPSSSLGTQTYICNVNHKPSNTKVDKKV[letters of human IgG1 Fc with L234A L235A G237A (EU numbers) omitted]GGGGSGGGGSGGGGSQVQLQQWGAGLLKPSETLSLTCAVYGGSISDYYWNWIRQPPGKCLEWIGEINYRGTTNSNPSLKSRVTLSLDTSKNQFSLKLRSVTAADTAVYYCAFGYSDYEYDWFDPWGQGTLVTVSSGGGGSGGGGSGGGGSGGGGSEIVLTQSPATLSLSPGERATLSCRASQTISSYLAWYQQKPGQAPRLLIYDASNRATGIPARFSGSGSGTDFTLTISSLEPEDFAVYYCQQRSNWPITFGCGTNLEIK light: DIVMTQSPSSLAVSVGERVTISCKSSQSLLNSSNQKNYLAWYQQKPGQAPKLLIYFASTRESGVPDRFSGSGSGTDFTLTISSLQAEDVAVYYCQQHYDTPYTFGGGTKLEIKRTVAAPSVFIFPPSDEQLKSGTASVVCLLNNFYPREAKVQWKVDNALQSGNSQESVTEQDSKDSTYSLSSTLTLSKADYEKHKVYACEVTHQGLSSPVTKSFNRGEC | EC50 (hNT5E(1-552)-His [2]): 50 pM; EC50 (human LAG3-mG1Fc [5]): 231 pM |
| 0.61 nM | 74.7% | 2160 pM | 399 pM | 152 pM | 0.948 nm | 2.8e-06 s⁻¹ | 2840 M⁻¹ s⁻¹ | 7.58e-05 s⁻¹ | 500000 M⁻¹ s⁻¹ | 1210 pM | 0.228 nm | 2.5e-06 s⁻¹ | 1360 M⁻¹ s⁻¹ | 0.000599 s⁻¹ | 495000 M⁻¹ s⁻¹ | 999 pM | LA5EV2(hG1TM) (bispecific antibody, human IgG1, kappa, IgG-scFv (Morrison format); also called LASEV2; LASEV2(hG1TM)) heavy: QVQLQQWGAGLLKPSETLSLTCAVYGGSISDYYWNWIRQPPGKGLEWIGEINYRGTTNSNPSLKSRVTLSLDTSKNQFSLKLRSVTAADTAVYYCAFGYSDYEYDWFDPWGQGTLVTVSSASTKGPSVFPLAPSSKSTSGGTAALGCLVKDYFPEPVTVSWNSGALTSGVHTFPAVLQSSGLYSLSSVVTVPSSSLGTQTYICNVNHKPSNTKVDKKV[letters of human IgG1 Fc with L234A L235A G237A (EU numbers) omitted]GGGGSGGGGSGGGGSGGGGSQVQLVQSGAEVVKPGASVKVSCKASGYSFTGYTMNWVRQAPGQCLEWIGLINPYNAGTSYNQKFQGKVTLTVDKSTSTAYMELSSLRSEDTAVYYCARSEYRYGGDYFDYWGQGTTLTVSSGGGGSGGGGSGGGGSGGGGSDIVMTQSPSSLAVSVGERVTISCKSSQSLLNSSNQKNYLAWYQQKPGQAPKLLIYFASTRESGVPDRFSGSGSGTDFTLTISSLQAEDVAVYYCQQHYDTPYTFGCGTKLEIKR light: EIVLTQSPATLSLSPGERATLSCRASQTISSYLAWYQQKPGQAPRLLIYDASNRATGIPARFSGSGSGTDFTLTISSLEPEDFAVYYCQQRSNWPITFGQGTNLEIKRTVAAPSVFIFPPSDEQLKSGTASVVCLLNNFYPREAKVQWKVDNALQSGNSQESVTEQDSKDSTYSLSSTLTLSKADYEKHKVYACEVTHQGLSSPVTKSFNRGEC | EC50 (hNT5E(1-552)-His [9]): 29 pM; EC50 (human LAG3-mG1Fc [10]): 36 pM; OD 450 nm (hNT5E(1-552)-His [11]): 0.058 OD; OD 450 nm (hNT5E(1-552)-His [12]): 0.059 OD; OD 450 nm (human LAG3-mG1Fc [13]): 0.103 OD; OD 450 nm (human LAG3-mG1Fc [14]): 0.156 OD |
